Test results as given in patent US8937048B2, “Anti-angiogenic compounds” (Covx Technologies Ireland, Limited, priority 2008, dated 2015).

B1: 2053 (conjugate)
peptide: VEPNCDIHVKWVWECFERLYGLE
heavy: EVQLVESGGGLVQPGGSLRLSCAASGFTFSNYWMSWVRQSPEKGLEWVSEIRLRSDNYATHYAESVKGRFTISRDNSKNTLYLQMNSLRAEDTGIYYCKTYFYSFSYWGQGTLVTVSSASTKGPSVFPLAPSSKSTSGGTAALGCLVKDYFPEPVTVSWNSGALTSGVHTFPAVLQSSGLYSLSSVVTVPSSSLGTQTYICNVNHKPSNTKVDKRV[human IgG1 Fc left out here]
light: ELQMTQSPSSLSASVGDRVTITCRSSQSLLHTYGSPYLNWYLQKPGQSPKLLIYKVSNRFSGVPSRFSGSGSGTDFTLTISSLQPEDFAVYFCSQGTHLPYTFGGGTKVEIKRTVAAPSVFIFPPSDEQLKSGTASVVCLLNNFYPREAKVQWKVDNALQSGNSQESVTEQDSKDSTYSLSSTLTLSKADYEKHKVYACEVTHQGLSSPVTKSFNRGEC
B2: 2071 (conjugate)
peptide: VEPNCDIHVMWKWECFERL
heavy: B1 heavy
light: B1 light
B3: 2069 (conjugate)
peptide: VEPNCDIHVKWEWECFERL
heavy: B1 heavy
light: B1 light
B4: 2028 (conjugate)
peptide: KEPNCDIHVMWEWECFERL
heavy: B1 heavy
light: B1 light
B5: 2073 (conjugate)
peptide: VEPNCDIHVMWEWECFKRL
heavy: B1 heavy
light: B1 light
B6: 2048 (conjugate)
peptide: VEPNCDIHVKWVWECFERLYGPF
heavy: B1 heavy
light: B1 light
B7: 2046 (conjugate)
peptide: VEPNCDIHVKWVWECFERLYGPL
heavy: B1 heavy
light: B1 light
B8: 2045 (conjugate)
peptide: VEPNCDIHVMWVWECFKRLYGPL
heavy: B1 heavy
light: B1 light
B9: 2052 (conjugate)
peptide: VEPNCDIHVMWVWECFKRLYGLE
heavy: B1 heavy
light: B1 light

Assays:
[1] = Mouse PK, serum analysed by VEGF ELISA (VEGF coated ELISA); type: in vivo, Swiss Webster mice; conditions: for Half life: Table 3, ELISA format not given
Method: (§1) PK studies were conducted using male Swiss Webster mice (CFW, Charles Rivers Hollister, Calif.) weighing approximately 20-22 grams at the start of dosing. [VEGF-Peptide]-[Linker]-[Antibody] complexes were given by IV administration through the tail vein, blood samples were taken from 3 mice per time point via retro orbital sinus bleed at the following time points: 0.08, 0.5, 1, 3, 5, 7 and 24 hours. […] For the remaining time points (32-120 hrs), mice were killed by CO2 inhalation and terminal cardiac samples were drawn. Protease Inhibitor cocktail was added to all blood tubes prior to sample collection. Blood was allowed to clot on ice for 30 minutes and then centrifuged at 12000 rpm for 5-10 minutes at 4° C. to collect serum and immediately stored at −80° C. until analysis via ELISA. Dosing solutions were used to establish the standard curves for serum sample analysis by VEGF Reverse ELISA. Aliquots of each serum sample were analyzed by either VEGF Reverse ELISA (also described herein as IgG Coated ELISA) or VEGF ELISA (VEGF Coated ELISA).
After washing the plates three times with 1× washing buffer (KPL Cat#50-65-00) and blocking with Superblock (Scytek #AAA500) at room temperature (RT) for 1 hour, prepared dosing solution standards (range: 3.91-500 ng/ml) and serum samples were added to the plate and incubated for 1 hour to allow binding of [VEGF-Peptide]-[Linker]-[Antibody] complexes to the coated VEGF on the plates. The plates were then washed three times with washing buffer, diluted goat anti-human IgG-HRP (1:5000) (Bethyl A80-104P-52) was added and incubated at RT for 1 hour, followed by addition of tetramethylbenzidine (TMB) substrate (Pierce, Cat#34021) for color development. The reaction was stopped with 2 M H2SO4. OD450 was measured using SpectraMax (Molecular Device) with a correction wavelength of 540 nm. Serum concentrations of the [VEGF-Peptide]-[Linker]-[Antibody] complexes were calculated using the standard curves. Serum [VEGF-Peptide]-[Linker]-[Antibody] complexes concentrations, as determined by ELISA, were plotted as a function of time. Further data analysis was undertaken using WinNonlin version 4.1 (Pharsight Corporation) to determine the β half life (T1/2) and the area under the curve (AUC) for [VEGF-Peptide]-[Linker]-[Antibody] complexes.

[2] = Mouse PK, serum analysed by VEGF Reverse ELISA (IgG coated ELISA); type: in vivo, Swiss Webster mice; conditions: IgG coated ELISA (values in square brackets)
Method: as §1
High-binding half-well 96-well plates (Costar #3690) were coated with 1:100 goat anti-human IgG in coating buffer (Bethyl Laboratories ELISA kit, Cat# E80-104) at 4° C. overnight. After washing the plates three times with 1× washing buffer (KPL Cat#50-65-00) and blocking with Superblock (Scytek #AAA500) at room temperature (RT) for 1 hour, prepared dosing solution standards (range: 3.91-500 ng/ml) and serum samples were added to the plate and incubated for 1 hour on a plate shaker to allow binding of [VEGF-Peptide]-[Linker]-[Antibody] complexes to the plates. A fixed concentration of VEGF (3 nM) was then added and incubated for 1 hour on a plate shaker. The plates were then washed three times with washing buffer, and a diluted (1:500) biotinylated anti-human VEGF antibody (R&D systems, Cat# BAF293) was added and incubated at RT for 2 hours. After washing the plates, streptavidin HRP conjugate (1:200 in Superblock) (R&D systems, Cat# DY998) was added to detect the bound anti-VEGF antibody, followed by addition of tetramethylbenzidine (TMB) substrate (Pierce, Cat#34021) for color development. The reaction was stopped with 2 M H2SO4. OD450 was measured using SpectraMax (Molecular Device) with a correction wavelength of 540 nm. Serum concentrations of the [VEGF-Peptide]-[Linker]-[Antibody] complexes were calculated using the standard curves. Serum compound concentrations, as determined by ELISA, were plotted as a function of time. Further data analysis was undertaken using WinNonlin version 4.1 (Pharsight Corporation) to determine the β half life (T1/2) and the area under the curve (AUC) for [Peptide]-[Linker]-[Antibody] complexes.

| Molecule | Half life [1] | Half Life(Hrs) [IgG] Coated [2] | other results |
| --- | --- | --- | --- |
| B1 | – | – | Half Life(Hrs) VEGF Coated ([1]; VEGF coated ELISA (values without brackets)): 36 h; VEGF half-life ([1]; mouse, text b307): approximately 36 hours |
| B2 | 43 h | – | – |
| B3 | 52 h | – | – |
| B4 | 32 h | – | – |
| B5 | 83 h | – | – |
| B6 | – | [23] Hrs | – |
| B7 | – | [19] Hrs | – |
| B8 | – | [50^ Hrs | – |
| B9 | – | [38] Hrs | – |
